{"source": "the supplement of paper PMC8728848", "experiment_in_all_cases": "glycan array binding signal (z-score within array); higher = stronger binding", "conditions_in_all_cases": "glycan notation: IUPAC condensed, linker removed", "key": {"[1]": {"target": "GlcNAc(b1-3)Gal(b1-4)GlcNAc(b1-3)Gal(b1-4)GlcNAc", "method_in_brief": "(§1)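 Arrays were curated from the Consortium for Functional Glycomics database, 3228 in total, and kept only where the protein sequence was available. Binding is expressed as a within-array Z-score. This score was averaged across arrays of the same protein sequence at different concentrations or buffers and across linkers, and negative values can be read as non-binding.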"}, "[2]": {"target": "GlcNAc(b1-3)GalNAc", "method_in_brief": "as §1"}, "[3]": {"target": "GlcNAc(b1-3)Man", "method_in_brief": "as §1"}, "[4]": {"target": "GlcNAc(b1-3)[GlcNAc(b1-4)][GlcNAc(b1-6)]GlcNAc", "method_in_brief": "as §1"}, "[5]": {"target": "GlcNAc(b1-3)[GlcNAc(b1-6)]Gal(b1-4)GlcNAc", "method_in_brief": "as §1"}, "[6]": {"target": "GlcNAc(b1-3)[GlcNAc(b1-6)]GalNAc", "method_in_brief": "as §1"}, "[7]": {"target": "GlcNAc(b1-4)Gal(b1-4)GlcNAc", "method_in_brief": "as §1"}, "[8]": {"target": "GlcNAc(b1-4)GlcNAc", "method_in_brief": "as §1"}, "[9]": {"target": "GlcNAc(b1-4)GlcNAc(b1-4)GlcNAc", "method_in_brief": "as §1"}, "[10]": {"target": "GlcNAc(b1-4)GlcNAc(b1-4)GlcNAc(b1-4)GlcNAc(b1-4)GlcNAc", "method_in_brief": "as §1"}, "[11]": {"target": "GlcNAc(b1-4)GlcNAc(b1-4)GlcNAc(b1-4)GlcNAc(b1-4)GlcNAc(b1-4)GlcNAc", "method_in_brief": "as §1"}, "[12]": {"target": "GlcNAc(b1-4)[GlcNAc(b1-6)]GalNAc", "method_in_brief": "as §1"}, "[13]": {"target": "GlcNAc(b1-6)Gal(b1-4)GlcNAc", "method_in_brief": "as §1"}, "[14]": {"target": "GlcNAc(b1-6)GalNAc", "method_in_brief": "as §1"}, "[15]": {"target": "GlcNAc3Prop(b1-4)GlcNAc", "method_in_brief": "as §1"}, "[16]": {"target": "GlcNAc6S(b1-3)Gal(b1-4)GlcNAc", "method_in_brief": "as §1"}, "[17]": {"target": "Kdn(a2-3)Gal(b1-3)GalNAc", "method_in_brief": "as §1"}, "[18]": {"target": "Kdn(a2-3)Gal(b1-3)GlcNAc", "method_in_brief": "as §1"}, "[19]": {"target": "Kdn(a2-3)Gal(b1-4)Glc", "method_in_brief": "as §1"}, "[20]": {"target": "Kdn(a2-3)Gal(b1-4)GlcNAc", "method_in_brief": "as §1"}, "[21]": {"target": "Kdn(a2-3)Gal(b1-4)[Fuc(a1-3)]GlcNAc", "method_in_brief": "as §1"}, "[22]": {"target": "Kdn(a2-6)Gal(b1-4)GlcNAc", "method_in_brief": "as §1"}, "[23]": {"target": "Man(a1-2)Man(a1-2)Man(a1-3)Man", "method_in_brief": "as §1"}, "[24]": {"target": "Man(a1-2)Man(a1-2)Man(a1-6)[Man(a1-3)]Man", "method_in_brief": "as §1"}, "[25]": {"target": "Man(a1-2)Man(a1-3)Man", "method_in_brief": "as §1"}, "[26]": {"target": "Man(a1-2)Man(a1-3)[Man(a1-2)Man(a1-6)]Man", "method_in_brief": "as §1"}, "[27]": {"target": "Man(a1-2)Man(a1-3)[Man(a1-2)Man(a1-6)]Man(a1-6)[Man(a1-2)Man(a1-2)Man(a1-3)]Man", "method_in_brief": "as §1"}, "[28]": {"target": "Man(a1-2)Man(a1-3)[Man(a1-2)Man(a1-6)]Man(a1-6)[Man(a1-2)Man(a1-2)Man(a1-3)]Man(b1-4)GlcNAc(b1-4)GlcNAc", "method_in_brief": "as §1"}, "[29]": {"target": "Man(a1-2)Man(a1-3)[Man(a1-6)]Man(a1-6)[Man(a1-2)Man(a1-3)]Man(b1-4)GlcNAc(b1-4)GlcNAc", "method_in_brief": "as §1"}, "[30]": {"target": "Man(a1-2)Man(a1-6)[Man(a1-3)]Man(a1-6)[Man(a1-2)Man(a1-2)Man(a1-3)]Man", "method_in_brief": "as §1"}, "[31]": {"target": "Man(a1-2)Man(a1-6)[Man(a1-3)]Man(a1-6)[Man(a1-2)Man(a1-2)Man(a1-3)]Man(b1-4)GlcNAc(b1-4)GlcNAc", "method_in_brief": "as §1"}, "[32]": {"target": "Man(a1-3)[Man(a1-6)]Man", "method_in_brief": "as §1"}, "[33]": {"target": "Man(a1-3)[Man(a1-6)]Man(a1-6)[Man(a1-2)Man(a1-3)]Man(b1-4)GlcNAc(b1-4)GlcNAc", "method_in_brief": "as §1"}, "[34]": {"target": "Man(a1-3)[Man(a1-6)]Man(a1-6)[Man(a1-3)]Man", "method_in_brief": "as §1"}, "[35]": {"target": "Man(a1-3)[Man(a1-6)]Man(a1-6)[Man(a1-3)]Man(b1-4)GlcNAc(b1-4)GlcNAc", "method_in_brief": "as §1"}, "[36]": {"target": "Man(a1-3)[Man(a1-6)]Man(b1-4)GlcNAc(b1-4)GlcNAc", "method_in_brief": "as §1"}, "[37]": {"target": "Man(a1-6)Man", "method_in_brief": "as §1"}, "[38]": {"target": "Man(b1-4)GlcNAc", "method_in_brief": "as §1"}, "[39]": {"target": "Neu5Ac(a2-3)Gal", "method_in_brief": "as §1"}, "[40]": {"target": "Neu5Ac(a2-3)Gal(b1-3)GalNAc", "method_in_brief": "as §1"}, "[41]": {"target": "Neu5Ac(a2-3)Gal(b1-3)GalNAc(b1-3)Gal(a1-4)Gal(b1-4)Glc", "method_in_brief": "as §1"}, "[42]": {"target": "Neu5Ac(a2-3)Gal(b1-3)GalNAc(b1-4)[Neu5Ac(a2-3)]Gal(b1-4)Glc", "method_in_brief": "as §1"}, "[43]": {"target": "Neu5Ac(a2-3)Gal(b1-3)GalNAc6S", "method_in_brief": "as §1"}, "[44]": {"target": "Neu5Ac(a2-3)Gal(b1-3)GlcNAc", "method_in_brief": "as §1"}, "[45]": {"target": "Neu5Ac(a2-3)Gal(b1-3)GlcNAc(b1-2)Man(a1-3)[Neu5Ac(a2-3)Gal(b1-3)GlcNAc(b1-2)Man(a1-6)]Man(b1-4)GlcNAc(b1-4)GlcNAc", "method_in_brief": "as §1"}}, "note": "This is one part of the list.", "data": [{"binder": "Galatrox (Botrops atrox), P0DM53 (protein) NNCPQDWLPMNGLCYKIFDELKAWKDAEMFCRKYKPGCHLASIILYGESPEWAEGHSEVWLGLWDKKKDFSWEWTDR", "values": [{"measurement": "glycan array binding signal (z-score)", "setting": "[1]", "value": -0.259}, {"measurement": "glycan array binding signal (z-score)", "setting": "[2]", "value": -0.375}, {"measurement": "glycan array binding signal (z-score)", "setting": "[3]", "value": -0.36}, {"measurement": "glycan array binding signal (z-score)", "setting": "[4]", "value": -0.347}, {"measurement": "glycan array binding signal (z-score)", "setting": "[5]", "value": -0.354}, {"measurement": "glycan array binding signal (z-score)", "setting": "[6]", "value": -0.367}, {"measurement": "glycan array binding signal (z-score)", "setting": "[7]", "value": -0.366}, {"measurement": "glycan array binding signal (z-score)", "setting": "[8]", "value": -0.367}, {"measurement": "glycan array binding signal (z-score)", "setting": "[9]", "value": -0.354}, {"measurement": "glycan array binding signal (z-score)", "setting": "[10]", "value": -0.373}, {"measurement": "glycan array binding signal (z-score)", "setting": "[11]", "value": -0.362}, {"measurement": "glycan array binding signal (z-score)", "setting": "[12]", "value": -0.376}, {"measurement": "glycan array binding signal (z-score)", "setting": "[13]", "value": 0.654}, {"measurement": "glycan array binding signal (z-score)", "setting": "[14]", "value": -0.107}, {"measurement": "glycan array binding signal (z-score)", "setting": "[15]", "value": -0.371}, {"measurement": "glycan array binding signal (z-score)", "setting": "[16]", "value": 3.08}, {"measurement": "glycan array binding signal (z-score)", "setting": "[17]", "value": -0.329}, {"measurement": "glycan array binding signal (z-score)", "setting": "[18]", "value": -0.351}, {"measurement": "glycan array binding signal (z-score)", "setting": "[19]", "value": -0.364}, {"measurement": "glycan array binding signal (z-score)", "setting": "[20]", "value": -0.356}, {"measurement": "glycan array binding signal (z-score)", "setting": "[21]", "value": -0.363}, {"measurement": "glycan array binding signal (z-score)", "setting": "[22]", "value": 0.063}, {"measurement": "glycan array binding signal (z-score)", "setting": "[23]", "value": -0.366}, {"measurement": "glycan array binding signal (z-score)", "setting": "[24]", "value": -0.362}, {"measurement": "glycan array binding signal (z-score)", "setting": "[25]", "value": -0.364}, {"measurement": "glycan array binding signal (z-score)", "setting": "[26]", "value": -0.378}, {"measurement": "glycan array binding signal (z-score)", "setting": "[27]", "value": -0.369}, {"measurement": "glycan array binding signal (z-score)", "setting": "[28]", "value": -0.38}, {"measurement": "glycan array binding signal (z-score)", "setting": "[29]", "value": -0.368}, {"measurement": "glycan array binding signal (z-score)", "setting": "[30]", "value": -0.368}, {"measurement": "glycan array binding signal (z-score)", "setting": "[31]", "value": -0.212}, {"measurement": "glycan array binding signal (z-score)", "setting": "[32]", "value": -0.371}, {"measurement": "glycan array binding signal (z-score)", "setting": "[33]", "value": -0.056}, {"measurement": "glycan array binding signal (z-score)", "setting": "[34]", "value": -0.361}, {"measurement": "glycan array binding signal (z-score)", "setting": "[35]", "value": -0.37}, {"measurement": "glycan array binding signal (z-score)", "setting": "[36]", "value": -0.35}, {"measurement": "glycan array binding signal (z-score)", "setting": "[37]", "value": -0.369}, {"measurement": "glycan array binding signal (z-score)", "setting": "[38]", "value": -0.36}, {"measurement": "glycan array binding signal (z-score)", "setting": "[39]", "value": -0.363}, {"measurement": "glycan array binding signal (z-score)", "setting": "[40]", "value": -0.365}, {"measurement": "glycan array binding signal (z-score)", "setting": "[41]", "value": -0.344}, {"measurement": "glycan array binding signal (z-score)", "setting": "[42]", "value": -0.325}, {"measurement": "glycan array binding signal (z-score)", "setting": "[43]", "value": -0.361}, {"measurement": "glycan array binding signal (z-score)", "setting": "[44]", "value": -0.362}, {"measurement": "glycan array binding signal (z-score)", "setting": "[45]", "value": -0.363}]}]}
